In patent US20210292423A1 (published 2021):

Columns and labels:
[1] = target: T1, human CD123 Strep-II tagged Fc-fusion protein (human); assay: SPR Biacore
T1 construct: also called human CD123-Fc; recombinant CD123

[2] = target: T2, human CD3ε/δ-Fc fusion protein (soluble recombinant CD3ε/δ complex) (human, UniProt P04234 22-105); assay: SPR Biacore
T2 construct: also called huCD3ε/δ; huCD3; not shown: hinge, CH2, CH3 of human IgG with tag

[3] = target: T3, human CD123 (IL3RA) on cells (human, UniProt P26951 19-378); assay: cell-based or functional assay
T3 sequence: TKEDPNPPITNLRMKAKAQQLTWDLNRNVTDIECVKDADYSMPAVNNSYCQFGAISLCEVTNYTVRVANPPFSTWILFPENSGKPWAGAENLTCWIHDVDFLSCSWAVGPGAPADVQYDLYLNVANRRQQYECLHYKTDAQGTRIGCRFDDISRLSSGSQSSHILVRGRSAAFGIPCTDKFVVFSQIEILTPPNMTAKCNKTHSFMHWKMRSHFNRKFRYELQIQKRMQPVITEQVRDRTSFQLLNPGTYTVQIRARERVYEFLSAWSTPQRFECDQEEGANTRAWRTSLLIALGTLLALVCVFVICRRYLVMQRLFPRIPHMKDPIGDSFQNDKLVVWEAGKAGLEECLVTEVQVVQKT

B1: CODV-Fab hz20G6x7G3-TL4 antibody-like binding protein (bispecific antibody, human IgG4, kappa)
light: DFVMTQSPSSLTVTAGEKVTMSCKSSQSLLNSGNQKNYLTWYLQKPGQPPKLLIYWASTRESGVPDRFTGSGSGTDFTLTISSVQAEDLAVYYCQNDYSYPYTFGGGTKLEIKGQPKAAPDIVMTQTPLSLSVTPGQPASISCKSSQSLVHNNGNTYLSWYLQKPGQSPQSLIYKVSNRFSGVPDRFSGSGSGTDFTLKISRVEAEDVGVYYCGQGTQYPFTFGSGTKVEIKTKGPSRTVAAPSVFIFPPSDEQLKSGTASVVCLLNNFYPREAKVQWKVDNALQSGNSQESVTEQDSKDSTYSLSSTLTLSKADYEKHKVYACEVTHQGLSSPVTKSFNRGEC[human IgG4 Fc with S228P L235E H435R Y436F (EU numbers) omitted here]
heavy: QVQLVESGGGVVQPGRSLRLSCAASGFTFTKAWMHWVRQAPGKQLEWVAQIKDKSNSYATYYADSVKGRFTISRDDSKNTLYLQMNSLRAEDTAVYYCRGVYYALSPFDYWGQGTLVTVSSSEVQLQQSGPELVKPGASVKMSCKASGYTFTDYYMKWVKQSHGKSLEWIGDIIPSNGATFYNQKFKGKATLTVDRSSSTAYMHLNSLTSEDSAVYYCTRSHLLRASWFAYWGQGTLVTVSARTASTKGPSVFPLAPCSRSTSESTAALGCLVKDYFPEPVTVSWNSGALTSGVHTFPAVLQSSGLYSLSSVVTVPSSSLGTKTYTCNVDHKPSNTKVDKRV[human IgG4 Fc with changes omitted here]
notes: one chain of formula IV and one of formula III, IgG4 backbone; also called CODV-Fab-TL4 hz20G6x7G3; Fc-tagged variant TL4: hz20G6 × 7G3 CODV-Fab-TL4
Question: What does the source list for B1?
Answer: Kd [1]: 1.7 nM; Kd [2]: 13.9 nM; Cytotoxic assay (THP cells) EC50 [pM] [3]: 16.7 pM
